Data reported in the supplement of paper PMC3334620.
Whole data set: some 33,000 sequences, median “E-score (-0.5 to 0.5)” near -0.021, cut for the highest 2% near 0.32. Some of the results follow.

Target: T1, Zap1 (UniProt P47043)
T1 sequence: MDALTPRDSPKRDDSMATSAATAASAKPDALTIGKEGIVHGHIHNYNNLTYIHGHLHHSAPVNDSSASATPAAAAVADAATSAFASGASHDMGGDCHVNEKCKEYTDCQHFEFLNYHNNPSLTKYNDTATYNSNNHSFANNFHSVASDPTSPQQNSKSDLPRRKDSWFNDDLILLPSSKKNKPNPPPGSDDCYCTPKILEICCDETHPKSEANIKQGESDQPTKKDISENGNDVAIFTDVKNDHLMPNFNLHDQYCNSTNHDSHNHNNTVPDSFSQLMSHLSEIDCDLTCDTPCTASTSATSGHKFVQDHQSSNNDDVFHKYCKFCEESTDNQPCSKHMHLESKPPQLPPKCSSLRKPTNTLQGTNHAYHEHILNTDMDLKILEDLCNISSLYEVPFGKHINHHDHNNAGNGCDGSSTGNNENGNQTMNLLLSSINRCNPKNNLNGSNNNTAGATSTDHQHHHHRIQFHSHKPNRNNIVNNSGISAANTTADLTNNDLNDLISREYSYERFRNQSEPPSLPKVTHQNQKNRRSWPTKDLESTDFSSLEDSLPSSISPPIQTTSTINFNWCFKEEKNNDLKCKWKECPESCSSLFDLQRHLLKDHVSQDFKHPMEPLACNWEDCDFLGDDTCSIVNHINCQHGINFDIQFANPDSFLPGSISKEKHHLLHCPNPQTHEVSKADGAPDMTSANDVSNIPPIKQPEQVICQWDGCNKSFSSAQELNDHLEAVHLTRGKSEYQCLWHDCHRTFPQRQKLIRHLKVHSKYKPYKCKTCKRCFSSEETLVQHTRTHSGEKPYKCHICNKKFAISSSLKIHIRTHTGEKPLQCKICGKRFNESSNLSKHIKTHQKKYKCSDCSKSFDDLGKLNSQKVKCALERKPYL
Experiment: PBM E-score (8-mer binding enrichment) (E-score (-0.5 to 0.5)); higher = stronger / more preferred TF binding; most listed sequences are background and not binding sites
Conditions: protein concentration: 200 nM; construct: GST-full length
Experimental: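 Universal 'all 10-mer' protein binding microarrays (Agilent AMADID 015681) probed with GST-tagged S. cerevisiae TFs (full-length or DBD) made by in vitro transcription/translation (PURExpress), about 100-200 nM. Bound TF was detected with fluorescent anti-GST. Each ungapped 8-mer (which stands for itself and its reverse complement) is scored by the PBM enrichment score (E-score), a modified Wilcoxon-Mann-Whitney statistic from -0.5 to +0.5, computed with the Universal PBM Analysis Suite. Scale: above 0.35 generally sequence-specific binding.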

Sequence	PBM E-score
AACCTGGC	0.0636
CAGTGAAG	-0.277
CGAGATGA	-0.0111
CCCCTGGC	-0.0954
ATCTTGGG	-0.107
GGTCACAA	0.393
GTAGAGTA	0.0367
GTCCCAAC	-0.0842
GACTAATC	-0.144
CAAGGTGC	-0.111
ACTAATTC	0.122
AGCATTCA	-0.146
AAAGGCCC	0.0508
GATGCATC	0.0481
ATCCATAA	0.25
ACGGTAAT	0.139
AGTGATTC	-0.107
ACATCAGA	0.0095
AACTCGGG	0.0219
ACCCGCGA	0.207
AGATGTCG	-0.028
CATGGTCG	-0.0819

Sequence	PBM E-score
GGCAACCC	0.358
CCTAAGAC	-0.0667
AGGCGGCA	-0.241
CAACACTA	0.115
AACACATT	0.012
AGTTGTCG	-0.00588
ACTATGCT	0.0185
GAAATGGA	-0.196
TCGCGCAA	0.0975
ACAAGGCG	-0.128
TTAAATAA	0.177
CAGGAATG	-0.148
CGTGGAGC	-0.138
ATCCGTAA	0.0475
GAGCAGAA	-0.116
CGCGCCTA	0.0177
GGATAGGA	-0.141
ACTTGGAT	0.156
TGAGTAAA	0.0227
AAAAAAAT	0.176
TGGTAACA	0.0812
CTCAGAGC	-0.198

Sequence	PBM E-score
GAAAACGA	0.0161
AGAGTAGC	-0.202
AAATTACC	0.307
GAGAAAAC	0.0811
AATATAGT	0.0896
ATATGAAA	0.264
ATAATTGG	0.0347
TATCAGAA	0.0282
CTGCAGTC	-0.13
TCCGACCA	-0.116
AGACTATG	-0.11
ATAACCGG	0.387
ATGAGTTC	-0.115
GTATTATA	0.305
ACGGGCAG	-0.0793
CCACAGTA	0.0669
ATTTGTTA	0.151
GAGATTAA	0.00852
AGAGGCTC	-0.247
CATTAATG	0.0676
GGGACTAC	-0.0133
CTTTTCAC	0.00083

Sequence	PBM E-score
CTGATTAA	0.166
CTTGGTAC	0.181
AATATGCC	-0.285
CGAGCGGA	-0.173
CAGTAATA	0.112
CAATGCAC	-0.139
GGAGAGCA	-0.206
CATAGATG	-0.173
GAGGGCGC	-0.277
GACGCAGA	-0.0982
GAGTTAAA	0.0833
GGAAGGAC	-0.27
AAGTACAG	-0.182
CCTGGGTC	0.148
AGTTGATG	0.0076
ATCTGAAG	-0.213
AATCGTTC	-0.085
AAATTGCT	-0.0693
CGCAGCAA	-0.12
ACCCACAC	0.225
